A value given as a limit tells only on which side of the number the result lay.

The assay relates to NCI-H322M. Conditions: Homo sapiens, Non-Small Cell Lung Cancer, 72 hours. The protocol: Inhibition of cell growth was measured using cell viability assay, which is based on the use of a protein-binding dye, sulforhodamine B (SRB). The different cancer cell lines were seeded in 96-well plates at 2000 cells/100 μL per well in RPMI media with 10% FBS. Next day, the cells were treated with compounds as designed doses and incubated for 72 hours at 37° C. in the presence of 5% CO2. Then the cells were fixed with 10% ice cold trichloroacetic acid (TCA) and incubated for an hour at 4° C. After washing the plates with tap water 4-5 times, the plates were dried in the air. Then the cells were stained with 0.4% SRB for 10 minutes, washed with 1% acetic acid 4-5 times and dried in the air. After adding 100 μL of 10 mM unbeffered Tris base to solubilize bound stain, optical densities were measured at 574 nm using Victor™ (1420 Multi-label Counter, Wallace) for the analysis. The values of IC50 (the concentration of 50% growth inhibition) were calculated from the dose-response curve fitting.

On to `Nc1nccc(-c2cc(-c3ccc(O)cc3)ccc2O)n1` [3-(2-Amino-pyrimidin-4-yl)-biphenyl-4,4′-diol], for which the GI50 (usually the concentration that inhibits growth by half) was 316 nM. Moreover, the CC50 (read-out: Log (LC50) (the source's name) (converted)) was > 100000 nM.

Values taken from patent US20030187007A1, “Inhibitors of protein kinase for the treatment of disease” (priority 2001, published 2003).
